# Test results: the supplement of paper PMC9588766
# Structures can show the parent of a compound that is named as a salt. The full ranking holds about 1,900 compounds; the median of “cell viability of compound + 1 nM pemigatinib relative to pemigatinib-only (DMSO) wells” is about 0.95, and the lowest 2% start at about 0.22. This is one part of the list.
# Test system: PDC-DUC18828
# Test: cell viability of compound + 1 nM pemigatinib relative to pemigatinib-only (DMSO) wells (fraction); PDC-DUC18828 is a patient-derived cholangiocarcinoma cell line; higher = less growth inhibition
# Settings: first compound 1 µM; pemigatinib concentration 1 nM; 72 h
# Procedure: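 Selleck Bioactive library screen in the patient-derived FGFR2 fusion-positive ICC cell line PDC-DUC18828 (500 cells/well). Each compound was tested at 1 uM with 1 nM pemigatinib, in triplicate, for 72 h. Viability was read by CellTiter-Glo and normalised to plate DMSO controls. Value is the paper's averaged normalised viability.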
row,SMILES,cell viability
1,O=c1[nH]c2ccc(Cl)cc2c(N[C@@H]2CN3CCC2CC3)c1-c1nc2ccccc2[nH]1 + CCN1C(=O)N(c2c(F)c(OC)cc(OC)c2F)Cc2cnc3[nH]c(CN4CCOCC4)cc3c21 [pemigatinib],0.934
2,CCN(CC)C(=O)c1ccc(C2=CC3(CCNCC3)Oc3cccc(O)c32)cc1 + CCN1C(=O)N(c2c(F)c(OC)cc(OC)c2F)Cc2cnc3[nH]c(CN4CCOCC4)cc3c21 [pemigatinib],0.979
3,CN(C)C(=O)Oc1ccc[n+](C)c1 [Pyridostigmine Bromide] + CCN1C(=O)N(c2c(F)c(OC)cc(OC)c2F)Cc2cnc3[nH]c(CN4CCOCC4)cc3c21 [pemigatinib],1.04
4,CN1CCN(c2nc3ccccc3nc2Cl)CC1 + CCN1C(=O)N(c2c(F)c(OC)cc(OC)c2F)Cc2cnc3[nH]c(CN4CCOCC4)cc3c21 [pemigatinib],0.871
5,C[C@@H]1[C@H](O)[C@@H](C)/C=C/C=C/CC/C=C/C=C/C=C/C=C/[C@H](O[C@H]2O[C@@H](C)[C@H](O)[C@@H](N)[C@H]2O)C[C@@H]2O[C@](O)(C[C@@H](O)[C@H](O)CC[C@@H](O)C[C@@H](O)C[C@@H](O)CC(=O)O[C@H]1C)C[C@H](O)[C@H]2C(=O)O [Nystatin (Fungicidin)] + CCN1C(=O)N(c2c(F)c(OC)cc(OC)c2F)Cc2cnc3[nH]c(CN4CCOCC4)cc3c21 [pemigatinib],1.01
6,CC(C)NCC(O)c1ccccc1Cl (centres undefined) [Clorprenaline HCl] + CCN1C(=O)N(c2c(F)c(OC)cc(OC)c2F)Cc2cnc3[nH]c(CN4CCOCC4)cc3c21 [pemigatinib],0.982
7,Cc1cc2c(C(C)C)c(O)c(O)c(C=O)c2c(O)c1-c1c(C)cc2c(C(C)C)c(O)c(O)c(C=O)c2c1O [Gossypol] + CCN1C(=O)N(c2c(F)c(OC)cc(OC)c2F)Cc2cnc3[nH]c(CN4CCOCC4)cc3c21 [pemigatinib],0.906
8,CCc1c(C(=O)C(N)=O)c2c(OCC(=O)O)cccc2n1Cc1ccccc1 + CCN1C(=O)N(c2c(F)c(OC)cc(OC)c2F)Cc2cnc3[nH]c(CN4CCOCC4)cc3c21 [pemigatinib],0.923
9,Cc1sc2c(c1C)C(c1ccc(Cl)cc1)=N[C@@H](CC(=O)Nc1ccc(O)cc1)c1nnc(C)n1-2 + CCN1C(=O)N(c2c(F)c(OC)cc(OC)c2F)Cc2cnc3[nH]c(CN4CCOCC4)cc3c21 [pemigatinib],0.767
10,COc1ccc(C(CN(C)C)C2(O)CCCCC2)cc1 (centres undefined) [Venlafaxine] + CCN1C(=O)N(c2c(F)c(OC)cc(OC)c2F)Cc2cnc3[nH]c(CN4CCOCC4)cc3c21 [pemigatinib],1.07
11,C[C@]12CCC(=O)C(O)=C1CC[C@@H]1[C@@H]2CC[C@]2(C)C(=O)CC[C@@H]12 [Formestane] + CCN1C(=O)N(c2c(F)c(OC)cc(OC)c2F)Cc2cnc3[nH]c(CN4CCOCC4)cc3c21 [pemigatinib],1.01
12,N#C[C@H](O[C@@H]1O[C@H](C(=O)O)[C@@H](O)[C@H](O)[C@H]1O)c1ccccc1 [Laetrile] + CCN1C(=O)N(c2c(F)c(OC)cc(OC)c2F)Cc2cnc3[nH]c(CN4CCOCC4)cc3c21 [pemigatinib],1.03
13,CNCC(O)c1ccc(O)cc1 (centres undefined) [Synephrine] + CCN1C(=O)N(c2c(F)c(OC)cc(OC)c2F)Cc2cnc3[nH]c(CN4CCOCC4)cc3c21 [pemigatinib],0.986
14,CNCC(O)c1ccc(O)cc1 (centres undefined) [Synephrine HCl] + CCN1C(=O)N(c2c(F)c(OC)cc(OC)c2F)Cc2cnc3[nH]c(CN4CCOCC4)cc3c21 [pemigatinib],0.935
15,CCOc1ccccc1-n1c(C(C)N2CCN(C(=O)COc3ccc(Cl)cc3)CC2)nc2ccccc2c1=O (centres undefined) [Erastin] + CCN1C(=O)N(c2c(F)c(OC)cc(OC)c2F)Cc2cnc3[nH]c(CN4CCOCC4)cc3c21 [pemigatinib],0.952
16,CN1[C@@H]2CC[C@H]1C[C@@H](OC(=O)C(CO)c1ccccc1)C2 (some centres undefined) [Atropine] + CCN1C(=O)N(c2c(F)c(OC)cc(OC)c2F)Cc2cnc3[nH]c(CN4CCOCC4)cc3c21 [pemigatinib],0.994
17,COc1cc(C)[nH]c(=O)c1CNC(=O)c1c(C)n([C@H](C)C2CCOCC2)c2ccccc12 + CCN1C(=O)N(c2c(F)c(OC)cc(OC)c2F)Cc2cnc3[nH]c(CN4CCOCC4)cc3c21 [pemigatinib],0.971
18,CN1C(=O)CCS(=O)(=O)C1c1ccc(Cl)cc1 (centres undefined) [Chlormezanone] + CCN1C(=O)N(c2c(F)c(OC)cc(OC)c2F)Cc2cnc3[nH]c(CN4CCOCC4)cc3c21 [pemigatinib],1.01
19,O=P1(N(CCCl)CCCl)NCCCO1 (centres undefined) [Cyclophosphamide Monohydrate] + CCN1C(=O)N(c2c(F)c(OC)cc(OC)c2F)Cc2cnc3[nH]c(CN4CCOCC4)cc3c21 [pemigatinib],1.02
20,c1ccc2c(c1)sc1ccccc12 [Dibenzothiophene] + CCN1C(=O)N(c2c(F)c(OC)cc(OC)c2F)Cc2cnc3[nH]c(CN4CCOCC4)cc3c21 [pemigatinib],1.03
21,Cc1ccc(-n2nccn2)c(C(=O)N2CCN(c3nc4cc(Cl)ccc4o3)CC[C@H]2C)c1 [Suvorexant (MK-4305)] + CCN1C(=O)N(c2c(F)c(OC)cc(OC)c2F)Cc2cnc3[nH]c(CN4CCOCC4)cc3c21 [pemigatinib],0.973
22,CCCN1CCO[C@@H]2c3cc(O)ccc3OC[C@H]21 + CCN1C(=O)N(c2c(F)c(OC)cc(OC)c2F)Cc2cnc3[nH]c(CN4CCOCC4)cc3c21 [pemigatinib],1.07
23,CCCCCCCCCCCCCCCC[n+]1ccccc1 [Cetylpyridinium Chloride] + CCN1C(=O)N(c2c(F)c(OC)cc(OC)c2F)Cc2cnc3[nH]c(CN4CCOCC4)cc3c21 [pemigatinib],0.67
24,C[C@H]1CNCCc2ccc(Cl)cc21 [Lorcaserin HCl] + CCN1C(=O)N(c2c(F)c(OC)cc(OC)c2F)Cc2cnc3[nH]c(CN4CCOCC4)cc3c21 [pemigatinib],0.933
